# In the supplement of paper PMC8728848:
# Some of the results follow.
# B1: Epa15 (Candida glabrata) (protein)
# chain: MGSSHHHHHHSSGLVPRGSHMASDPTTFPLGCSPEFTKTKKGLSMELYRYDYLPPGSYPCWDSAYLNPSYPRTGYKAKKLIATVDGVSGDINFKFNPKFGCKAIPDYLPSNFNYHEPITITNFTMILYGYFMPKTTAFHTFYVTADDLLFMNFGAGNAFDCCRREETADKFGNYAAYSVWGKKSLKNELTVYLHTGVYYPIRLFYNNRDYIAQLDIRFKTEHSNAIITNFTDYFYSVDDSSLGCPGLI
# Key:
# Assay in all cases: glycan array binding signal (z-score within array); higher = stronger binding
# Conditions in all cases: glycan notation: IUPAC condensed, linker removed
# [1] = target: GlcA3S(b1-3)Gal(b1-4)GlcNAc(b1-2)Man
# In short: (§1)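 The Consortium for Functional Glycomics database supplied 3228 glycan arrays, of which those lacking an available protein sequence were dropped. The binding signal, a within-array Z-score, was averaged across arrays of the same protein sequence and across linkers. Negative scores can be read as non-binding.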
# [2] = target: GlcA3S(b1-3)Gal(b1-4)GlcNAc(b1-3)Gal(b1-4)Glc
# In short: as §1
# [3] = target: GlcNAc(a1-3)Gal(b1-4)GlcNAc
# In short: as §1
# [4] = target: GlcNAc(a1-4)Gal(b1-3)GlcNAc
# In short: as §1
# [5] = target: GlcNAc(a1-4)Gal(b1-4)GalNAc
# In short: as §1
# [6] = target: GlcNAc(a1-4)Gal(b1-4)GlcNAc
# In short: as §1
# [7] = target: GlcNAc(a1-4)Gal(b1-4)GlcNAc(b1-3)Gal(b1-4)Glc
# In short: as §1
# [8] = target: GlcNAc(a1-4)Gal(b1-4)GlcNAc(b1-3)Gal(b1-4)GlcNAc
# In short: as §1
# [9] = target: GlcNAc(a1-4)Gal(b1-4)GlcNAc(b1-3)Gal(b1-4)GlcNAc(b1-3)Gal(b1-4)GlcNAc
# In short: as §1
# [10] = target: GlcNAc(a1-4)Gal(b1-4)GlcNAc(b1-3)Gal(b1-4)[Fuc(a1-3)]GlcNAc(b1-3)Gal(b1-4)[Fuc(a1-3)]GlcNAc
# In short: as §1
# [11] = target: GlcNAc(a1-6)Gal(b1-4)GlcNAc
# In short: as §1
# [12] = target: GlcNAc(b1-2)Gal(b1-3)GalNAc
# In short: as §1
# [13] = target: GlcNAc(b1-2)Gal(b1-3)GlcNAc
# In short: as §1
# [14] = target: GlcNAc(b1-2)Man(a1-3)[GlcNAc(b1-2)Man(a1-6)]Man(b1-4)GlcNAc(b1-4)GlcNAc
# In short: as §1
# [15] = target: GlcNAc(b1-2)Man(a1-3)[GlcNAc(b1-2)Man(a1-6)]Man(b1-4)GlcNAc(b1-4)[Fuc(a1-6)]GlcNAc
# In short: as §1
# [16] = target: GlcNAc(b1-2)Man(a1-3)[GlcNAc(b1-4)][GlcNAc(b1-2)Man(a1-6)]Man(b1-4)GlcNAc(b1-4)GlcNAc
# In short: as §1
# [17] = target: GlcNAc(b1-2)Man(a1-3)[GlcNAc(b1-4)][GlcNAc(b1-2)Man(a1-6)]Man(b1-4)GlcNAc(b1-4)[Fuc(a1-6)]GlcNAc
# In short: as §1
# [18] = target: GlcNAc(b1-2)[GlcNAc(b1-4)]Man(a1-3)[GlcNAc(b1-2)Man(a1-6)]Man(b1-4)GlcNAc(b1-4)GlcNAc
# In short: as §1
# [19] = target: GlcNAc(b1-2)[GlcNAc(b1-4)]Man(a1-3)[GlcNAc(b1-4)][GlcNAc(b1-2)Man(a1-6)]Man(b1-4)GlcNAc(b1-4)GlcNAc
# In short: as §1
# [20] = target: GlcNAc(b1-2)[GlcNAc(b1-4)]Man(a1-3)[GlcNAc(b1-4)][GlcNAc(b1-2)[GlcNAc(b1-6)]Man(a1-6)]Man(b1-4)GlcNAc(b1-4)GlcNAc
# In short: as §1
# [21] = target: GlcNAc(b1-2)[GlcNAc(b1-4)]Man(a1-3)[GlcNAc(b1-4)][GlcNAc(b1-2)[GlcNAc(b1-6)]Man(a1-6)]Man(b1-4)GlcNAc(b1-4)[Fuc(a1-6)]GlcNAc
# In short: as §1
# [22] = target: GlcNAc(b1-2)[GlcNAc(b1-6)]Man(a1-6)[GlcNAc(b1-2)Man(a1-3)]Man(b1-4)GlcNAc(b1-4)GlcNAc
# In short: as §1
# [23] = target: GlcNAc(b1-2)[GlcNAc(b1-6)]Man(a1-6)[GlcNAc(b1-2)Man(a1-3)]Man(b1-4)GlcNAc(b1-4)[Fuc(a1-6)]GlcNAc
# In short: as §1
# [24] = target: GlcNAc(b1-2)[GlcNAc(b1-6)]Man(a1-6)[GlcNAc(b1-4)][GlcNAc(b1-2)Man(a1-3)]Man(b1-4)GlcNAc(b1-4)GlcNAc
# In short: as §1
# GlcNAc(b1-3)Fuc = target: GlcNAc(b1-3)Fuc
# In short: as §1
# GlcNAc(b1-3)Gal = target: GlcNAc(b1-3)Gal
# In short: as §1
# [25] = target: GlcNAc(b1-3)Gal(b1-3)GalNAc
# In short: as §1
# GlcNAc(b1-3)Gal(b1-4)Glc = target: GlcNAc(b1-3)Gal(b1-4)Glc
# In short: as §1
# [26] = target: GlcNAc(b1-3)Gal(b1-4)GlcNAc
# In short: as §1
# [27] = target: GlcNAc(b1-3)Gal(b1-4)GlcNAc(b1-2)Man(a1-3)[GlcNAc(b1-3)Gal(b1-4)GlcNAc(b1-2)Man(a1-6)]Man(b1-4)GlcNAc(b1-4)GlcNAc
# In short: as §1
# [28] = target: GlcNAc(b1-3)Gal(b1-4)GlcNAc(b1-2)Man(a1-3)[GlcNAc(b1-3)Gal(b1-4)GlcNAc(b1-2)Man(a1-6)]Man(b1-4)GlcNAc(b1-4)[Fuc(a1-6)]GlcNAc
# In short: as §1
# [29] = target: GlcNAc(b1-3)Gal(b1-4)GlcNAc(b1-2)[GlcNAc(b1-3)Gal(b1-4)GlcNAc(b1-6)]Man(a1-6)[GlcNAc(b1-3)Gal(b1-4)GlcNAc(b1-2)Man(a1-3)]Man(b1-4)GlcNAc(b1-4)GlcNAc
# In short: as §1
# [30] = target: GlcNAc(b1-3)Gal(b1-4)GlcNAc(b1-3)Gal(b1-4)GlcNAc
# In short: as §1
# [31] = target: GlcNAc(b1-3)Gal(b1-4)GlcNAc(b1-3)Gal(b1-4)GlcNAc(b1-2)Man(a1-3)[GlcNAc(b1-3)Gal(b1-4)GlcNAc(b1-3)Gal(b1-4)GlcNAc(b1-2)Man(a1-6)]Man(b1-4)GlcNAc(b1-4)GlcNAc
# In short: as §1
# [32] = target: GlcNAc(b1-3)Gal(b1-4)GlcNAc(b1-3)Gal(b1-4)GlcNAc(b1-2)Man(a1-3)[GlcNAc(b1-3)Gal(b1-4)GlcNAc(b1-3)Gal(b1-4)GlcNAc(b1-2)Man(a1-6)]Man(b1-4)GlcNAc(b1-4)[Fuc(a1-6)]GlcNAc
# In short: as §1
# [33] = target: GlcNAc(b1-3)Gal(b1-4)GlcNAc(b1-3)Gal(b1-4)GlcNAc(b1-2)[GlcNAc(b1-3)Gal(b1-4)GlcNAc(b1-3)Gal(b1-4)GlcNAc(b1-6)]Man(a1-6)[GlcNAc(b1-3)Gal(b1-4)GlcNAc(b1-3)Gal(b1-4)GlcNAc(b1-2)Man(a1-3)]Man(b1-4)GlcNAc(b1-4)[Fuc(a1-6)]GlcNAc
# In short: as §1
# [34] = target: GlcNAc(b1-3)Gal(b1-4)GlcNAc(b1-3)Gal(b1-4)GlcNAc(b1-3)Gal(b1-4)GlcNAc(b1-2)Man(a1-3)[GlcNAc(b1-3)Gal(b1-4)GlcNAc(b1-3)Gal(b1-4)GlcNAc(b1-3)Gal(b1-4)GlcNAc(b1-2)Man(a1-6)]Man(b1-4)GlcNAc(b1-4)GlcNAc
# In short: as §1
binder,measurement,setting,value
B1,glycan array binding signal (z-score),[1],-0.474
same,glycan array binding signal (z-score),[2],-0.548
same,glycan array binding signal (z-score),[3],-0.491
same,glycan array binding signal (z-score),[4],-0.44
same,glycan array binding signal (z-score),[5],-0.429
same,glycan array binding signal (z-score),[6],-0.341
same,glycan array binding signal (z-score),[7],-0.392
same,glycan array binding signal (z-score),[8],-0.489
same,glycan array binding signal (z-score),[9],-0.452
same,glycan array binding signal (z-score),[10],0.9
same,glycan array binding signal (z-score),[11],0.881
same,glycan array binding signal (z-score),[12],-0.411
same,glycan array binding signal (z-score),[13],-0.273
same,glycan array binding signal (z-score),[14],-0.441
same,glycan array binding signal (z-score),[15],-0.322
same,glycan array binding signal (z-score),[16],-0.571
same,glycan array binding signal (z-score),[17],-0.557
same,glycan array binding signal (z-score),[18],-0.597
same,glycan array binding signal (z-score),[19],-0.577
same,glycan array binding signal (z-score),[20],-0.593
same,glycan array binding signal (z-score),[21],-0.367
same,glycan array binding signal (z-score),[22],-0.463
same,glycan array binding signal (z-score),[23],-0.396
same,glycan array binding signal (z-score),[24],-0.437
same,glycan array binding signal (z-score),GlcNAc(b1-3)Fuc,-0.548
same,glycan array binding signal (z-score),GlcNAc(b1-3)Gal,-0.409
same,glycan array binding signal (z-score),[25],-0.444
same,glycan array binding signal (z-score),GlcNAc(b1-3)Gal(b1-4)Glc,-0.298
same,glycan array binding signal (z-score),[26],-0.4
same,glycan array binding signal (z-score),[27],-0.286
same,glycan array binding signal (z-score),[28],0.2
same,glycan array binding signal (z-score),[29],0.605
same,glycan array binding signal (z-score),[30],-0.507
same,glycan array binding signal (z-score),[31],0.271
same,glycan array binding signal (z-score),[32],0.052
same,glycan array binding signal (z-score),[33],0.174
same,glycan array binding signal (z-score),[34],0.304
